# Experimental data from patent US20250197482A1.
# B1: CAP256.J3LS (bispecific antibody)
# heavy: QVQLVESGGGVVQPGTSLRLSCAASQFRFDGYGMHWVRQAPGKGLEWVASISHDGIKKYHAEKVWGRFTISRDNSKNTLYLQMNSLRPEDTALYYCAKDLREDECEEWWSDYYDFGAQLPCAKSRGGLVGIADNWGQGTMVTVSS[human IgG1 constant region with changes left out]
# light: EVQLVESGGGLVQAGGFLELSCELRGSIFNQYAMAWFRQAPGKEREFVAGMGAVPHYGEFVKGRFTISRDNAKSTVYLQMSSLEPEDTAIYFCARSKSTYISYNSNGYDYWGQGTQVTVSSGGSGGGGSGGGGSGGQSVLTQPPSVSAAPGQKVTISCSGNTSNIGNNFVSWYQQRPGRAPQLLIYETDKRPSGIPDRFSASKSGTSGTLAITGLQTGDEADYYCATWAASLSSARVFGTGTQVIVLGQPKVNPTVTLFPPSSEELQANKATLVCLISDFYPGAVTVAWKADSSPVKAGVETTTPSKQSNNKYAASSYLSLTPEQWKSHRSYSCQVTHEGSTVEKTVAPTECS
# Target: BG505 DS-SOSIP.664 Env trimer (HIV-1)
# Assay: ITC, 37 C, PBS pH 7.4, antibody titrated into trimer
binder,measurement,value
B1,-TΔS,41.2 kcal/mol
same,Kd,10 nM
same,N (stoichiometry) (Half-IgG per Trimer),1
same,ΔG,-11.3 kcal/mol
same,ΔH,-52.5 kcal/mol
